Assay results: paper PMC3576711
Where a chain is given by its changes, count along the chain named. These are yes or no findings as the source states them, for the method shown. For some assays here: In cells and extracts the contact can be indirect. Some binding calls cover weakened binding; strength is not graded here. Tags and fused reporters may be left off the sequences shown. Blank lines part the entries; values can stand above or below the molecule they belong to.

Protein sequences, listed by entry. Tags and fused reporters are not part of them.
UniProt P84092: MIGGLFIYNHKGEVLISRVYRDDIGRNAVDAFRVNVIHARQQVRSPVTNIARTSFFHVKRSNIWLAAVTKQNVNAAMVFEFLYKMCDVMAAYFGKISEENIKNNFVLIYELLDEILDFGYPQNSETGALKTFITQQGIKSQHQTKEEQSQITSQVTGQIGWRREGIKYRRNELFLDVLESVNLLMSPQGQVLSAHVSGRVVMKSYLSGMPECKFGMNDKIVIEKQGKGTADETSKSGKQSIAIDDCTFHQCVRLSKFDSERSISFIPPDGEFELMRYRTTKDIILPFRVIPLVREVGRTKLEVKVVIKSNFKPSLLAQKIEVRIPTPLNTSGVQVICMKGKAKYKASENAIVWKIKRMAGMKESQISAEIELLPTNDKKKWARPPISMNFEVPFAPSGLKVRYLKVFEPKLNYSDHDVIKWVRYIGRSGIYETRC

Key:
[1] = biological target: T1, UNC93B1-Y539A, C-terminal 3x FLAG tag (HEK293T) (mouse) (UniProt Q8VCW4); assay: co-IP; HEK293T transiently transfected with AP-2µ-HA and FLAG tagged UNC93B1; lysates incubated with anti-FLAG matrix, eluted with FLAG peptide; immunoblot with anti-HA or anti-FLAG
T1 sequence: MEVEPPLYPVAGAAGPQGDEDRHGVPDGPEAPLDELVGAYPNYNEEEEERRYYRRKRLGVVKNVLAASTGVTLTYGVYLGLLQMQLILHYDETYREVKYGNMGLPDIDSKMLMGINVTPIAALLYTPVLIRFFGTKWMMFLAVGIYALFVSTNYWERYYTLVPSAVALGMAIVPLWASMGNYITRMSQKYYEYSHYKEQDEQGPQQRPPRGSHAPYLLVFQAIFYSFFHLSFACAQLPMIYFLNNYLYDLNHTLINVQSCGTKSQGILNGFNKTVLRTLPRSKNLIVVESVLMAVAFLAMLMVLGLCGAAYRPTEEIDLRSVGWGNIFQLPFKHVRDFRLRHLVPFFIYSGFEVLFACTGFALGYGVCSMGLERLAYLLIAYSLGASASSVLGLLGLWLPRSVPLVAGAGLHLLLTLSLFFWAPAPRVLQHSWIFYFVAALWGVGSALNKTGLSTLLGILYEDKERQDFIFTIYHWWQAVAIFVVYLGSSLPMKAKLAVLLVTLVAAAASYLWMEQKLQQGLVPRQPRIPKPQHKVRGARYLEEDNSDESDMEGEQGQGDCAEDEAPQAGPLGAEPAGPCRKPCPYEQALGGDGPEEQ

[2] = biological target: T2, UNC93B1-WT, C-terminal 3x FLAG tag (HEK293T) (mouse) (UniProt Q8VCW4); assay: as above
T2 sequence: T1 sequence with A539Y

[3] = biological target: T3, TLR7-V5-His (UniProt P58681); assay: co-IP; 3d iMac cells expressing TLR9-HA, TLR7-V5-His and WT UNC93B1-GFP lysed in TNT buffer, incubated with anti-HA matrix or anti-V5 protein A/G beads; immunoblot with HA, GFP and V5 antibodies
T3 sequence: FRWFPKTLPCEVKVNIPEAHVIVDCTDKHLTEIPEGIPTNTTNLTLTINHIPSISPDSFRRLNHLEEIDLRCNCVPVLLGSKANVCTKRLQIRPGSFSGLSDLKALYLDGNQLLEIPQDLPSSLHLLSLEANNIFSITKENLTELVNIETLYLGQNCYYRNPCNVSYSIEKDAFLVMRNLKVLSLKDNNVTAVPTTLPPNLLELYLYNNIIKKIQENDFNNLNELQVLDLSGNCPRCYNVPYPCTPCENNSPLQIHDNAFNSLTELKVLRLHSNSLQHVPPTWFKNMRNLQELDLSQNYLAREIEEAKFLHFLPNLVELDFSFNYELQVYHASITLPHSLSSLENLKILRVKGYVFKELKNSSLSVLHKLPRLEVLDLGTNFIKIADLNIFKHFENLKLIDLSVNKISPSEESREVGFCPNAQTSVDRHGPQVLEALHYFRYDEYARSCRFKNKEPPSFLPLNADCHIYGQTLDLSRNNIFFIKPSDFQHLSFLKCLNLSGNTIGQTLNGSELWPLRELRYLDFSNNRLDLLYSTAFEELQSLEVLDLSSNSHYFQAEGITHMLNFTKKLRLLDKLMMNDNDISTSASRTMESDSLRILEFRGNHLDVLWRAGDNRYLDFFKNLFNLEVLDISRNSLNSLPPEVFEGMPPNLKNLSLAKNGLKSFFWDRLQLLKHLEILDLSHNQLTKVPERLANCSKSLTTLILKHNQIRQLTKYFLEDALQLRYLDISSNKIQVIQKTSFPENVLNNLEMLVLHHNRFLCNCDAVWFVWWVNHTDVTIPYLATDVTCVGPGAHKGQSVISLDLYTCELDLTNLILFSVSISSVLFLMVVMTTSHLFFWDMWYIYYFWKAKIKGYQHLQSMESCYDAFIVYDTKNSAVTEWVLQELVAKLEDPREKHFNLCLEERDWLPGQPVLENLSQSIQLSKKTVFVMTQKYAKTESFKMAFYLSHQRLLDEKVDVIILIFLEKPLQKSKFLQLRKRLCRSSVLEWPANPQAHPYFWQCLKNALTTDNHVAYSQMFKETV

[4] = biological target: T4, TLR9-HA, full-length forms (ER and Golgi-modified precursor) (UniProt Q9EQU3); assay: as above
T4 sequence: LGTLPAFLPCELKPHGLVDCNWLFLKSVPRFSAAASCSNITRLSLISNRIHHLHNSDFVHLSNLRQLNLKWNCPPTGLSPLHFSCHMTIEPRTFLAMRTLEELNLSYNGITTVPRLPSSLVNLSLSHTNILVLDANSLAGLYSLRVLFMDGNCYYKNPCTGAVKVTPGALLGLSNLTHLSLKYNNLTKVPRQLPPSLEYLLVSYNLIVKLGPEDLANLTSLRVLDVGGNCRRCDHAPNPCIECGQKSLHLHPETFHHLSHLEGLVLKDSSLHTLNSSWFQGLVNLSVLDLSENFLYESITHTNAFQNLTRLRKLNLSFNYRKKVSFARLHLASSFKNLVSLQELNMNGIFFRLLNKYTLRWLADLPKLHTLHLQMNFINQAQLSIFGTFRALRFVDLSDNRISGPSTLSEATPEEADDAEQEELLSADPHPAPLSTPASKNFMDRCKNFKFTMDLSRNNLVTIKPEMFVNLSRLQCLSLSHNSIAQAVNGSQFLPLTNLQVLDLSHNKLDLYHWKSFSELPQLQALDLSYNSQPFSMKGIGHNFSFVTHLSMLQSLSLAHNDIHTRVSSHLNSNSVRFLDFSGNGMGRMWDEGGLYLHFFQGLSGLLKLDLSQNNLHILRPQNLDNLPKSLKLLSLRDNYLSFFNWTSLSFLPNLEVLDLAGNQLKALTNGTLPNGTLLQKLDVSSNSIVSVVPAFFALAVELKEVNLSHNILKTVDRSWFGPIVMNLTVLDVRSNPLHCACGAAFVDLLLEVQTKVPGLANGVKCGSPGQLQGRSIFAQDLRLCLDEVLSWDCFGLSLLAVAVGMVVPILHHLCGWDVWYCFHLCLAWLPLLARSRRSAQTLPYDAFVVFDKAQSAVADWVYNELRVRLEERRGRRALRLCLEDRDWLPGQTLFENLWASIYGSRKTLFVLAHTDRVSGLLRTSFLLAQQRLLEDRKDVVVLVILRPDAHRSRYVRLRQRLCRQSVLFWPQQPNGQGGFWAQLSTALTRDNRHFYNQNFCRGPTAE

[5] = biological target: T5, UNC93B1 C-terminal cytosolic region (515-598 a.a.) fused to the Gal4 DNA binding domain (mouse) (UniProt Q8VCW4); assay: two-hybrid; yeast strain PJ69-4a; AP µ subunits fused to the Gal4 activation domain, tails fused to the Gal4 DNA binding domain; growth on -Trp-Leu-His or -Trp-Leu-Ade plates at 30°C recorded at day 3
T5 sequence: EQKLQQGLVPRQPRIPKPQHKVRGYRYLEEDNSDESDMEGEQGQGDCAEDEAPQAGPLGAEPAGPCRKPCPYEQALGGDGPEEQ

binding [1]: no binding
binding [2]: binds
Molecule: Rat AP-2μ-HA (internal HA tag) (from UniProt P84092 1-435)

binding [3]: binds
binding [4]: binds
B1: UNC93B1-WT, C-terminal eGFP tag (3d iMac cells) (protein, UniProt Q8VCW4 1-598)
chain: T1 sequence with A539Y

binding [5]: no binding
B2: AP-4μ fused to the Gal4 activation domain (protein, UniProt O00189 1-453)
chain: MISQFFILSSKGDPLIYKDFRGDSGGRDVAELFYRKLTGLPGDESPVVMHHHGRHFIHIRHSGLYLVVTTSENVSPFSLLELLSRLATLLGDYCGSLGEGTISRNVALVYELLDEVLDYGYVQTTSTEMLRNFIQTEAVVSKPFSLFDLSSVGLFGAETQQSKVAPSSAASRPVLSSRSDQSQKNEVFLDVVERLSVLIASNGSLLKVDVQGEIRLKSFLPSGSEMRIGLTEEFCVGKSELRGYGPGIRVDEVSFHSSVNLDEFESHRILRLQPPQGELTVMRYQLSDDLPSPLPFRLFPSVQWDRGSGRLQVYLKLRCDLLSKSQALNVRLHLPLPRGVVSLSQELSSPEQKAELAEGALRWDLPRVQGGSQLSGLFQMDVPGPPGPPSHGLSTSASPLGLGPASLSFELPRHTCSGLQVRFLRLAFRPCGNANPHKWVRHLSHSDAYVIRI
